Hit rate of the full screen: of about 310,000 compounds, about 14,000 (4.5%) showed an effect of 50% or more. The effect is printed as a negative number. The list shows a part of the results.
The molecules below were run against human ether-à-go-go-related gene (hERG) potassium channel (human, UniProt Q12809) (assay: primary screen, population patch clamp on CHO cells stably expressing hERG).
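Also: peak tail current of the secondary pulse compared with the same well before compound.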

Sequence of human ether-à-go-go-related gene (hERG) potassium channel (Q12809 whole entry, looked up): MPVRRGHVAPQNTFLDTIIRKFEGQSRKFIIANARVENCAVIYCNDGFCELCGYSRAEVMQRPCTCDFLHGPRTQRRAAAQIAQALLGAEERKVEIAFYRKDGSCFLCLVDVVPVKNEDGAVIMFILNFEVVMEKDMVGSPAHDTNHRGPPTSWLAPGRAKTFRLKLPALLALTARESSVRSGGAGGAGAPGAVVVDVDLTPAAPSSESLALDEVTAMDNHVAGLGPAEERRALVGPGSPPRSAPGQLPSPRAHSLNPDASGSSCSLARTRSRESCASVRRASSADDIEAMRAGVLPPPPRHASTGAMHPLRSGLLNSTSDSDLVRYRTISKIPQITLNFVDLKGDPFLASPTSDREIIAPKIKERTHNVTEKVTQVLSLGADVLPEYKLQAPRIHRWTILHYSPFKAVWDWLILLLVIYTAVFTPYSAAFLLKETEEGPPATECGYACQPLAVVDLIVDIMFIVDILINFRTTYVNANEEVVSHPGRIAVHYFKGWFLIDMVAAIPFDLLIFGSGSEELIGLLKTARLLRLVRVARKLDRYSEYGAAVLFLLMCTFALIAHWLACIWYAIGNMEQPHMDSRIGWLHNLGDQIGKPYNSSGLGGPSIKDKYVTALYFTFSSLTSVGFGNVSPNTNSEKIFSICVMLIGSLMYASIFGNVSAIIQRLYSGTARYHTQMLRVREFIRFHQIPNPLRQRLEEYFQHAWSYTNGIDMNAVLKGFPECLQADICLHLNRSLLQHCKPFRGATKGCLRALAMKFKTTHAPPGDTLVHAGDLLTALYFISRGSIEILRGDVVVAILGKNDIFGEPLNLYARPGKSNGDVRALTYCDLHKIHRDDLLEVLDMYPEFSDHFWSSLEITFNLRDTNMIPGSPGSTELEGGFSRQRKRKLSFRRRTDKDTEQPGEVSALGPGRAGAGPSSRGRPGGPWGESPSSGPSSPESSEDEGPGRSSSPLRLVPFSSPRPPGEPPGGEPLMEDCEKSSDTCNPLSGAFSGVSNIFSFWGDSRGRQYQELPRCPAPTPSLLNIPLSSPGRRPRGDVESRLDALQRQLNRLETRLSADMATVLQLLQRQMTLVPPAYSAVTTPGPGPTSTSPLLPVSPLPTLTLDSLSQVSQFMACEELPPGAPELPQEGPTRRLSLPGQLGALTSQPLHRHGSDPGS

SMILES | hERG current change (%, negative = inhibition) at 10uM
O=C(Cc1ccccc1F)Nc1ccccc1N1CCCC1 | -6.22%
C=CCNC(=O)c1ccc(N(Cc2ccccc2)S(C)(=O)=O)cc1 | -1.09%
O=C(Cn1[nH]c(=O)c2ccccc2c1=O)Nc1ccc2c(c1)CCC2 | -9.73%
Cc1cccc(CN2CCN(Cc3ccco3)CC2)c1.O=C(O)C(=O)O | 7.3%
CCC(C)N=C1SCC(C)(/C=N/O)S1 (centres unmarked) | -27%
CN1CCN(CCOC2c3ccccc3CSc3ccc(Cl)cc32)CC1.O=C(O)/C=C\C(=O)O (centres unmarked) | -57.2%
O=C(NC(=S)Nc1cccc2ncccc12)c1cccs1 | -21%
CN1C(=O)N(C)C2C1N(CN1CCCCC1)C(=O)N2CN1CCCCC1 (centres unmarked) | 13.5%
COCCCNC(=O)CCc1ccc(S(=O)(=O)Nc2ccc(C)cc2)cc1 | -10.1%
CCOC(=O)C1=C(C)N(CCCCCC(=O)O)C(=O)NC1c1ccc([N+](=O)[O-])cc1 (centres unmarked) | 16.3%
CC(C)C(=O)N(c1ccc(F)cc1)C1C=CS(=O)(=O)C1 (centres unmarked) | 1.36%
NC(=O)c1ccc(NC(=O)c2ccc(CN3CCOCC3)cc2)cc1 | 1.54%
COc1ccc(NC(=O)Nc2ccccc2F)c(C)c1 | 15.5%
O=C(NNC(=S)NC1CCCCC1)c1cccs1 | 3.35%
COc1ccc(CNC(=O)c2cccnc2SC)cc1OC | 17.6%
O=C(O)CCC(=O)OCC1CCCO1 (centres unmarked) | -0.944%
Cc1ccc(NC(=O)Cn2cccc2)cc1C | 5.78%
CCOc1cc(C=O)cc(N=Nc2cccc([N+](=O)[O-])c2)c1O | 9.31%
Cl.O=C(CN1CCN(Cc2ccccc2)CC1)N1CCCCCC1 | 4.77%
CCc1ccc(CN(C)C(=O)CCc2nnc(-c3ccc(-c4ccccc4)cc3)o2)nc1 | -65.1%
O=C(COC(=O)C1CCN(S(=O)(=O)c2ccccc2)CC1)NC(=O)c1ccc(OC(F)F)cc1 | 5.4%
COc1ccc(/C=C/C(=O)Nc2ccc3c(c2)OCCO3)cc1OC | 1.16%
COc1ccc(CCNC(=O)c2nnc(CS(=O)(=O)c3ccccc3)o2)cc1OC | -6.44%

SMILES | hERG current change (%, negative = inhibition) at 10uM
Cc1cc(Br)cc2c1NC(=O)C2(c1c(C)n(C)n(-c2ccccc2)c1=O)c1c(C)n(C)n(-c2ccccc2)c1=O | 21.6%
CCN(CC)C(CNC(=O)CSc1nnnn1-c1cccc(F)c1)c1ccco1 (centres unmarked) | -16.4%
Clc1ccc(-c2nnc(NC3=NCCCCC3)o2)cc1 | 2.79%
O=C(CSc1ncccn1)NCc1ccccc1 | 17%
COc1cnc(SCc2c(Cl)cccc2Cl)nc1Cl | -1.4%
CCOc1cc(CNc2ccc(N3CCCCC3)cc2)cc(Br)c1OCC(=O)NC(C)(C)C | 14.5%
CC1(C)C(=O)C2(CCCCC2)C(=O)OC1c1ccc(O)cc1 (centres unmarked) | 2.38%
CN(C)c1ccc(C2NCC(CCl)O2)cc1 (centres unmarked) | 5.99%
CCOC(=O)C1=C(C)NC2=C(C(=O)C(C(=O)OC)C(C)C2)C1c1ccc(OC)c(O)c1 (centres unmarked) | 6.99%
Cc1cccc(-n2c(-c3ccc([N+](=O)[O-])cc3)nc3ccccc3c2=O)c1 | 5.1%
COc1ccccc1NC(=O)Nc1ccncc1 | 30.9%
Cc1cc(C)c(S(=O)(=O)NCCc2ccncc2)c(C)c1 | 5.85%
CCOc1ccccc1NS(=O)(=O)c1ccc2c(c1)NC(=O)CCS2 | -46%
COc1ccc2c(c1)cc(C(=O)O)n2C | -6.02%
CN(C)C1(CNC(=O)CC(NC(=O)c2ccccc2Cl)c2ccccc2)CCCCC1 (centres unmarked) | -31.3%
O=C(Nc1cccc(NC(=O)C2C3CC4OC(=O)C2C4C3)c1)c1ccccc1 (centres unmarked) | 14.9%
CC(C)c1csc(CN2CCCC(CCC(=O)NCc3ccccc3F)C2)n1 (centres unmarked) | -34.3%
C/C(=N\NC(=O)c1c(Cl)c(C)nn1C)c1cccc(NC(=O)c2cccc(F)c2)c1 | 16.3%
Cc1cc(C)nc(-n2ncc3c2CC(c2ccccc2)CC3=O)n1 (centres unmarked) | -5.73%
Cc1[nH][nH]c(=O)c1/C=N/N1CCOCC1 | 14.8%
O=C(CCCN1C(=O)/C(=C/c2ccco2)SC1=S)Nc1ccccc1C(=O)O | 5.4%
Cc1noc(NS(=O)(=O)c2ccc(N/C=C/C(=O)c3ccncc3)cc2)c1C | -13%
O=C(c1cnccn1)N(c1ccccc1)C1(C(=O)NC2CCCC2)CCCCC1 | -9.09%

SMILES | hERG current change (%, negative = inhibition) at 10uM
CCOc1ccc(S(=O)(=O)N2CCC(C(=O)NCc3ccncc3)CC2)cc1Cl | -28.3%
C=CCn1c(SCC(=O)Nc2ccc(N3CCOCC3)cc2)nc2ccccc2c1=O | 3.75%
COc1ccc(OC)c(/C=N/NC(=O)CSc2nnc(C)n2-c2ccccc2)c1 | -12.4%
O=C(O)CSc1cnc2ccccc2n1 | -1.24%
Cn1c(C(=O)N2CCN(c3cccc(C(F)(F)F)c3)CC2)cc2sccc21 | -7.97%
O=C1OC2CC3CC1CC(O)(C3)C2 (centres unmarked) | -2.69%
O=C(COC(=O)c1cnccn1)c1ccc([N+](=O)[O-])cc1 | 2.35%
O=C(Nc1ccc(S(=O)(=O)Nc2nccs2)cc1)c1cc(-c2ccccc2)nc2ccccc12 | 6.03%
COc1cccc(C2N(c3ccc(Cl)c(Cl)c3)C(=O)C3CCCN32)c1OC (centres unmarked) | -14%
Cc1ccc(C(=O)N(NC2=NS(=O)(=O)c3ccccc32)S(=O)(=O)c2ccc(C)cc2)cc1 | 18.6%
O=C(c1noc2c1CCCC2)N1CCCCC1 | -0.65%
Cc1ccc(N(Cc2cc3ccc(C)cc3[nH]c2=O)S(=O)(=O)c2ccccc2)c(C)c1 | 28.2%
Cc1nc2sc(C(c3ccco3)N3CCC(C)CC3)c(O)n2n1 (centres unmarked) | -3.32%
O=C(Nc1cccc(NC(=O)c2ccc(Br)o2)n1)c1ccc(Br)o1 | -3.36%
Cc1ccc(Sc2ncnc3onc(C)c23)cc1 | 4.79%
N#CCSCC(=O)Nc1ccc(Br)cc1 | 16.5%
COc1ccc(Cl)c(NCCC(=O)O)c1 | 15.5%
CC1(C)CC(=O)c2c(oc3ccc(NS(=O)(=O)c4ccc(C(=O)O)cc4)cc23)C1 | 32.5%
Cc1cccc(-n2c(O)c(C=NCCCN3CCOCC3)c3ccccc3c2=O)c1 | -23.7%
COc1ccc(C2CC(c3ccccc3)Nc3nc(NC(=O)c4cccs4)nn32)cc1 (centres unmarked) | -52%
C#CCNC(=O)C1=C[C@@H](C2CCCCC2)[C@H](CCCO)[C@@H](OCC)O1 | -5.53%
O=c1ccc(-c2ccc(S(=O)(=O)NCC3CCN(Cc4cccc(F)c4)CC3)s2)n[nH]1 | -8.55%
CCN(CC)c1ccc(N/C(N)=N/c2nc(C(F)(F)F)cc(=O)[nH]2)cc1 | 24.6%

SMILES | hERG current change (%, negative = inhibition) at 10uM
Cc1cc[n+](-c2[nH]c(=O)sc2/C=N/N=C(\[O-])c2ccccc2)cc1 | -9.02%
COc1cc(C2C(C#N)=C(N)N(c3cccnc3)C3=C2C(=O)CC(C)(C)C3)ccc1O (centres unmarked) | -4.86%
Cc1cccc(N2CC(O)(c3cccs3)[N+]3=C2CCCC3)c1C.[Br-] (centres unmarked) | -43.5%
CCOC(=O)c1nc(NCCc2ccccc2)sc1C | 5.5%
CC1(c2ccccc2)CC(C)(C)N2C(=O)C3(C(C#N)=C(N)Oc4cc(O)ccc43)c3cccc1c32 (centres unmarked) | 22.7%
C=CCn1c(SCC(=O)O)nc2sc(CC)cc2c1=O | 13.8%
COc1cccc(-c2ncc3ccccc3c2COC(=O)c2cccc(Br)c2)c1 | 5.74%
Cc1cc(OCC(=O)NC2CC(C)(C)NC(C)(C)C2)c2c(C)cc(=O)oc2c1 | -5.66%
Cc1noc(C)c1COc1ccccc1C(=O)NCCc1ccc(S(N)(=O)=O)cc1 | -1.27%
Cc1c(OCC(=O)N[C@H](C(=O)O)c2ccccc2)ccc2c3c(c(=O)oc12)CCCC3 | 19.8%
O=C(NC(Cc1ccccc1)C(=O)O)/C(=C/c1ccccc1)NC(=O)c1ccco1 (centres unmarked) | 6.28%
CC1CCc2c(sc(NC(=O)c3nc4ncccn4n3)c2C#N)C1 (centres unmarked) | 4.71%
O=C(O)C1CCN(C(=O)COc2ccc(Br)cc2)CC1 | 38%
C=CCOc1ccc(CNn2cn[nH]c2=S)cc1 | 9.3%
Cc1c(C(=O)N2CCCC(C)C2)sc2ncnc(N3CCCCC3C)c12 (centres unmarked) | -21%
CC(C)Oc1cc(S(=O)(=O)N2CCCCC2)ccc1N | 2.99%
O=C(Nc1ccc(Br)cn1)c1ccc2nccnc2c1 | -0.493%
C=CCNc1nc(C(=O)OCC(=O)Nc2ccccc2C(F)(F)F)cs1 | 2.65%
COC(=O)C1C(=O)C=C(N2CCOCC2)CC1(C)C (centres unmarked) | 6.2%
COC(=O)c1ccccc1NC(=O)CN(C)Cc1ccccc1 | 4.5%
